# Results: patent US20250179210A1, “ANTI-CEACAM5 ANTIBODIES AND CONJUGATES AND USES THEREOF” (Merck Patent GmbH, priority 2022, published 2025)
# T1: rhA3-B3 (Homo sapiens, UniProt P06731)
# T1 construct: A3; 499-593; B3; 594-685; purchased Syngene
# T1 sequence (P06731 499-685): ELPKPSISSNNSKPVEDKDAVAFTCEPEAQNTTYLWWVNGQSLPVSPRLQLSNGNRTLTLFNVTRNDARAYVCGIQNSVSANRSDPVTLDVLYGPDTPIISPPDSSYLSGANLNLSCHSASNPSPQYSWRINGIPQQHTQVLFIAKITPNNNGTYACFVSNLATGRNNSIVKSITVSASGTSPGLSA
# T2: rhN-A1-B1 (Homo sapiens, UniProt P06731)
# T2 construct: 35-142; A1; 143-237; B1; 238-320; purchased Syngene
# T2 sequence (P06731 35-320): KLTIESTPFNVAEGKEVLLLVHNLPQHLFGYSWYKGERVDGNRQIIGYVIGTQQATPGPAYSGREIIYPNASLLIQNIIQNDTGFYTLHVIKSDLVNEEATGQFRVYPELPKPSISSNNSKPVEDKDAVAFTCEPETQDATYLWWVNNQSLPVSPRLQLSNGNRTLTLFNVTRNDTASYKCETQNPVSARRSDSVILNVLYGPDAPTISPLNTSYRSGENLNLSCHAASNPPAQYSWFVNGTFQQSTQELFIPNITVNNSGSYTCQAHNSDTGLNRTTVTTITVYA
# B1: mAb1: anti-CEACAM5 antibody; two heavy chains SEQ ID NO: 13 and two light chains SEQ ID NO: 14 (antibody)
# heavy: EVQLQESGPGLVKPSQTLSLTCTVSDGSVSRGGYYLTWIRQHPGKGLEWIGYIYYSGSTYFNPSLRSRVTMSVDTSKNQFSLKLSSVTAADTAVYYCARGIAVAPFDYWGQGTLVTVSSASTKGPSVFPLAPSSKSTSGGTAALGCLVKDYFPEPVTVSWNSGALTSGVHTFPAVLQSSGLYSLSSVVTVPSSSLGTQTYICNVNHKPSNTKVDKRVEPKSCDKTHTCPPCPAPPVAGPSVFLFPPKPKDTLMISRTPEVTCVVVDVSHEDPEVKFNWYVDGVEVHNAKTKPREEQYNSTYRVVSVLTVLHQDWLNGKEYKCKVSNKALPSSIEKTISKAKGQPREPQVYTLPPSREEMTKNQVSLTCLVKGFYPSDIAVEWESNGQPENNYKTTPPVLDSDGSFFLYSKLTVDKSRWQQGNVFSCSVMHEALHNHYTQKSLSLSPG
# light: EIVLTQSPATLSVSPGERATLSCRTSQSVRSNLAWYQQKPGQAPRLLIYAASTRATGIPARFSGSGSGTEFTLTISSLQSEDFAVYYCQQYTNWPFTFGPGTKVDIKRTVAAPSVFIFPPSDEQLKSGTASVVCLLNNFYPREAKVQWKVDNALQSGNSQESVTEQDSKDSTYSLSSTLTLSKADYEKHKVYACEVTHQGLSSPVTKSFNRGEC
# B2: ADC1 (conjugate)
# heavy: B1 heavy
# light: B1 light
# What was measured:
# [1] = system: CEACAM5 and FcRn; test: Affinity to CEACAM5 and FcRn after Fc optimization; assay type: binding; conditions: compared to the parent clone
# [2] = biological target: T1, rhA3-B3; test: Selectivity ELISA, species and domains; assay type: binding
# Protocol: (§1) Selectivity determination for mAb1 was done by titrating the antibody from 4 nM to 0.25 μM and applying it on 1 μg/ml bound recombinant human (rh) CEACAM5 ECD or its domains N-A1-B1, A2-B2, A3-B3 or bound recombinant Macaca fascicularis (mf) CEACAM5 ECD, all obtained from Syngene, in an ELISA assay.
# [3] = biological target: T2, rhN-A1-B1; test: Selectivity ELISA, species and domains; assay type: binding
# Protocol: as §1
# [4] = system: human patient-derived gastric xenograft model GAPF313; test: Gastric PDX mouse model GAPF313; assay type: in vivo; conditions: interim analysis; ADC1 4 mg/kg or 7 mg/kg Q2W×3, ADC SAR DM4 4.7 mg/kg Q2W×3, i.v.
# Protocol: (§2) Anti-tumor efficacy in vivo was evaluated in the human patient-derived gastric xenograft model GAPF313 (Shanghai LideBiotech CO., LTD). Tumor fragments were transplanted subcutaneously into the right flank of six to eight weeks old immunodeficient female mice (NU-Foxn1nu, Charles River). […] Tumor length (L) and width (W) were measured with calipers and tumor volumes were calculated using the formula L×(W^2)/2.
# Anti-tumor efficacy of ADC1-M and ADC3-M in comparison to ADC SAR DM4 has been evaluated in the human GC xenograft model GAPF313. The study was performed at Lide Biotech (Shanghai). Six to eight weeks old immunodeficient female mice (Crl: NU-Foxn1nu) were transplanted subcutaneously in the right flank with GAPF313 tumor fragments. When tumors reached a mean volume of 176 mm^3 6 mice/group were treated intravenously every other week (3 cycles) with vehicle (saline solution) or with 4 mg/kg ADC1-M or ADC3-M or 4.7 mg/kg ADC SAR DM4. Tumor length (L) and width (W) were measured with calipers and tumor volumes were calculated using L×W^2/2.
# [5] = system: human patient-derived gastric cancer xenograft model GAX066; test: Gastric cancer PDX mouse model GAX066; assay type: in vivo; conditions: single i.v. treatment
# Protocol: Anti-tumor efficacy in vivo was evaluated in the human patient-derived gastric cancer xenograft model GAX066 (Shanghai ChemPartner Co., Ltd). Tumor fragments were transplanted subcutaneously into the right flank of immunodeficient female mice (Nu/Nu mice, Beijing Vital River Lab Animal Technology Co. Ltd, 18-22 g). […] Tumor length (L) and width (W) were measured with calipers and tumor volumes were calculated using the formula L×(W^2)/2.
# [6] = ADC stability in serum; assay type: in vitro ADME; conditions: up to 96 h
# Protocol: 2 M HEPES solution: 52.1 g HEPES were dissolved in 75 mL MiliQ-water and 15 mL HCl 25%, adjusted to pH 7.55 and added up to 100 mL. This solution was mixed as 15% v/v with serum to obtain a stabilized serum with pH 7.3-7.4. Human serum from Biowest (Lot. no. S15594S4200) was thawed. 100 mL serum were mixed with 15 mL 2 M HEPES buffer. Mouse serum from Biowest (Lot. no. S18169S2160) was thawed. 100 mL serum were mixed with 15 mL 2 M HEPES buffer. Cynomolgus serum was thawed and 8.5 mL serum were mixed with 1.5 mL 2 M HEPES buffer. The pH was measured (7.37) and serum was sterile filtered. 2 mL aliquots were frozen at −20° C.
# The prepared serum was thawed at RT. The desired ADC protein concentration was prepared as triplicated with 180 μg/mL for subsequent free payload analytics via LC-MS. After adding the ADCs to the serum, the individual batches were mixed and separated into 20 μL aliquots.
# Additionally, one 96 h sample with 20 μL for each ADC was pipetted and was used to for total work up analyses to measure recovery. 0 h samples were directly frozen at −80° C., remaining samples were incubated at 37° C. and 5% CO2 and reactions were stopped at 2/4/6/24/48/72, 96 hours incubation via storage at −80° C.
# [7] = system: MDA-MB-468; test: Viability assay (Cell Titer-Glo); assay type: cell-based, human; conditions: Table 2
# [8] = system: human patient-derived NSCLC xenograft model LUPF160151; test: NSCLC PDX mouse model LUPF160151; assay type: in vivo; conditions: single i.v. treatment, 6 mg/kg
# Protocol: as §2, with “vivo has been” for “vivo was”, “patient-derived NSCLC” for “patient-derived gastric”, “model LUPF160151” for “model GAPF313”, “LTD). LUPF160151 tumor” for “LTD). Tumor”
# [9] = system: 12 other CRC PDX models with high CEACAM5 expression; test: Other CRC PDX models; assay type: in vivo, mouse; conditions: single treatment
# Protocol: as §2, with “vivo has been” for “vivo was”, “patient-derived CRC” for “patient-derived gastric”, “model COPF217” for “model GAPF313”, “LTD). COPF217 tumor” for “LTD). Tumor”
Molecule,Affinity to CEACAM5 and FcRn [1],Binding to rhA3-B3 [2],Binding to rhN-A1-B1 [3],anti-tumor efficacy [4],tumors with complete tumor regression ([5]; 10 mg/kg),anti-tumor effect ([5]; 3 or 10 mg/kg),impact on body weight ([5]; 3 or 10 mg/kg),warhead release in serum ([6]; cynomolgus serum),warhead release in serum ([6]; human serum),MDA-MB-468 maximal effect compared to untreated controls ([7]; at the highest tested compound concentration),"IC50 ([7]; six days, geometric mean, N ≥ 2, CEACAM5 Negative) [nM]",anti-tumor effect [8],impact on body weight [8],anti-tumor effect [9]
B1,maintaining the affinity,No binding,No binding,,,,,,,,,,,
B2,,,,clear anti-tumor efficacy,five of six tumors,significant anti-tumor effect,no impact on body weight,Only minor warhead release observed,Only minor warhead release observed,(−85%),> 10,significant anti-tumor effect,no impact on body weight,tumor stasis or tumor regression
